# Measured values taken from ChEMBL document CHEMBL4888484, “Replenishing the malaria drug discovery pipeline: Screening and hit evaluation of the MMV Hit Generation Library 1 (HGL1) against asexual blood stage Plasmodium falciparum ,using a nano luciferase reporter read-out” (2022).
# Among all 150,000 compounds or so, about 540 (0.36%) showed an effect of 50% or more. The list shows a part of the results.
# System: Plasmodium falciparum
# Test: Primary screen in NF54 nanoGlo assay, in single point, at 2uM, 72h; a lower Z score goes with more inhibition
# Format: functional, Erythrocyte
# Conditions: timepoint 72 hour
Structure (SMILES),% Inhibition [%],Z score
COCc1ncc(C(=O)N2Cc3ncccc3N3CCC[C@H]3C2)s1,5,-0.64
Cc1ccc(NCc2n[n+](CC(=O)c3ccccc3)c3n2CCCCC3)cc1,-40,4.69
CCS(=O)(=O)N1C[C@@H]2CN(C(=O)c3cncc(C)c3)C[C@]2(c2nc(C)no2)C1,-22,2.91
Cc1ccc(C(=O)N2[C@H](C(=O)NCc3ccc4c(c3)OCO4)COC23CCN(C(=O)c2ccccc2C)CC3)cc1,-5,0.44
CCCc1nnc(N2CCC(CCN3CCCC3)CC2)o1,-9,1.6
NC(=O)c1ccc(C(F)(F)F)n(C[C@H](O)c2cc(Cl)ccc2Cl)c1=O,37,-5.52
CCc1cccc(S(=O)(=O)NC[C@H](O)C(=O)NC)c1,7,-0.63
Cc1nnc(COC(=O)c2cc3ccc(C(C)(C)C)cc3[nH]2)o1,32,-0.43
COc1cc(Br)ccc1CN1CC(C(N)=O)O[C@H](C)C1 (some centres not stated),-2,0.28
CN(CC(=O)N(c1nc2ccccc2o1)C1CC1)S(C)(=O)=O,1,-0.06
CCNC(=O)N1CCc2nc(N3CCN(c4ccccc4F)CC3)nc(N(C)C)c2C1,-5,0.65
N#CCCN(CCC#N)C(=O)c1cc(Cl)ccc1Cl,-9,1.77
Cc1nc(NC2CCN(Cc3ccccc3)CC2)cc([C@H]2C[C@@H](O)C2)n1,-17,1.64
O=C1Nc2ccccc2Oc2cc(N3CCCC3)c(S(=O)(=O)N3CCCC3)cc21,-10,1.37
CC(C)CN1CC2(CCN(C(=O)Nc3cc(F)ccc3F)CC2)CC1=O,-19,1.84
Cc1noc([C@H](C)N(C)Cc2cc(CN(C)C)cs2)n1,-4,0.59
Cc1cncc(N2CCn3c(Cc4cccc(F)c4)nnc3C2)n1,-9,1.65
Cc1ccc(CN2CCn3nnc(-c4nc(-c5ccsc5)no4)c3C2=O)cc1,-8,1.11
COc1ccc(CN2C(=O)N[C@@H](CC(=O)N3CCc4ccccc4C3)C2=O)cc1OC,-2,0.34
O=C1CC[C@@H](c2c[nH]c3ccccc23)N1Cc1ccccc1,2,-0.26
CCc1cc(C(=O)N2CCC(n3cn[nH]c3=O)CC2)ccc1O,-1,0.12

Structure (SMILES),% Inhibition [%],Z score
Cc1cc(CS(=O)(=O)Cc2ccc(F)cc2Cl)no1,-14,2.21
Cc1cc(NC(=O)CN2CCC[C@H](Cc3nccn3C)C2)n(C)n1,7,-0.96
CCN(Cc1nc(CCOC)no1)c1ccccc1Cl,-3,0.3
COc1ccccc1CNC(=O)C1CCN(S(=O)(=O)c2cc(-c3noc(C)n3)sc2C)CC1,-24,2.11
CCCOC[C@H]1CCN(C(=O)c2cnc[nH]2)C1,3,-0.51
COc1cc(NC(=O)c2cc(C)n3nc(C)cc3n2)cc(-n2cnnn2)c1,-14,1.52
COc1cc(C(=O)O[C@@H](C)c2ccccc2F)on1,0,0.02
CC(C)N1C(=O)CN(C(=O)c2nc(-c3ccccc3)cs2)CC1(C)C,-5,0.72
Cc1ncc(CN(C)C(=O)C2CCCCC2C(=O)N2CCCC2)s1 (configuration not stated),-2,0.23
CCc1cccc(/N=C(\NC(=O)c2ccccc2)N2CCN(c3ccccc3)CC2)c1,-1,0.16
CCN(Cc1ccc(C)o1)Cc1cc2ccc(C)cc2[nH]c1=O,2,-0.25
CN1CCN2C[C@@H](NC(=O)C(=O)CCc3ccccc3)C[C@H]2C1,-4,0.64
COC1CCC(CCNC(=O)CN(C)C2CC2)CC1 (configuration not stated),0,0
O=C1NCCN(C(=O)Nc2ccc(CCc3ccccn3)cc2)[C@H]1CCO,1,-0.09
O=C(c1ccc2ccccc2n1)N1CCN(C(c2ccccc2)c2ccccc2)CC1,-7,1.03
CCC[C@H]1C(=O)NCCN1C(=O)N(CC)C(C)C,-12,1.13
O=C(NCc1cccc(F)c1)N1CCC(n2cc(-c3ccccc3)nn2)CC1,-3,0.56
Cc1ncc([C@H](C)NCCOc2ncc(Cl)cc2Cl)c(C)n1,-12,1.09
Cc1nc(NC(=O)N[C@@H](C)Cc2cccs2)nn1C(C)C,-6,0.52
CCc1ccccc1C(N)CNC(=O)N1CCCC(OC2CCC2)C1 (configuration not stated),-15,1.51
